# Hit rate of the full screen: of about 310,000 compounds, about 2,200 (0.71%) showed an effect of 50% or more. Effects have a minus sign here. The list shows a part of the results.
# Target: human ether-à-go-go-related gene (hERG) potassium channel (human, UniProt Q12809)
# Test: primary screen, population patch clamp on CHO cells stably expressing hERG
# Sequence of human ether-à-go-go-related gene (hERG) potassium channel (Q12809 whole entry, looked up): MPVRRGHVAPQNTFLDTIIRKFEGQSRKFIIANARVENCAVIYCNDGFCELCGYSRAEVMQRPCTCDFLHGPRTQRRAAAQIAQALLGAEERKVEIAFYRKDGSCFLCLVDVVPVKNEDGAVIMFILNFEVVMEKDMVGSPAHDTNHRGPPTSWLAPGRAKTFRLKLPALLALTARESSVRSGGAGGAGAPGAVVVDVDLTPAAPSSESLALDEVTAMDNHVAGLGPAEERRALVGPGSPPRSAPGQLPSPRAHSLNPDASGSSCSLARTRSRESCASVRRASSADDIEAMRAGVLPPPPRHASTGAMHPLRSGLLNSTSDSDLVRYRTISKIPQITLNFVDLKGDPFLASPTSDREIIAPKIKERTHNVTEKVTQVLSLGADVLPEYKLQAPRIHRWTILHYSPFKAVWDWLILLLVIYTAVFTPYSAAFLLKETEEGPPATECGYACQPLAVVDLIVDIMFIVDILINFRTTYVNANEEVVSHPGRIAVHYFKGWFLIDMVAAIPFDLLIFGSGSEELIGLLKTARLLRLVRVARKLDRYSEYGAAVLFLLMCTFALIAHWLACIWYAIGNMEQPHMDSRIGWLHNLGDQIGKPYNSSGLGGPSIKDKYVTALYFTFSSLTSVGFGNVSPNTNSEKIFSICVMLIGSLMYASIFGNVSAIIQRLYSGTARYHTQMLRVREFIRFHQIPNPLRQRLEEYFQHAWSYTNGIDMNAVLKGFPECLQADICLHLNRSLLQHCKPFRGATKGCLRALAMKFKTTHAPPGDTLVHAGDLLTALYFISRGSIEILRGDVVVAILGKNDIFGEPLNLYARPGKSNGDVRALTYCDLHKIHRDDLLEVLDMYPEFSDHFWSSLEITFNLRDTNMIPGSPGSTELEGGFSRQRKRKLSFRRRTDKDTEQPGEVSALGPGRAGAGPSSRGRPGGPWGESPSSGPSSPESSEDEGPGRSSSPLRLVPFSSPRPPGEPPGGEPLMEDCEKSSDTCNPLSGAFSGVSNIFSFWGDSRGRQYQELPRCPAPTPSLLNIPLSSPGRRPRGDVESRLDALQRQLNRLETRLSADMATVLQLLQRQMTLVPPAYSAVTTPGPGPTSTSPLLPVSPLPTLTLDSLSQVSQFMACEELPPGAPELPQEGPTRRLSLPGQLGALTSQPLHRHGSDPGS
row,SMILES,"hERG current change (%, negative = inhibition) at 1uM"
1,COc1ccccc1NS(=O)(=O)c1ccc2oc(SC)nc2c1,7.14%
2,Cc1cc(C(F)(F)F)c2c(n1)sc1c(O)cc(=O)[nH]c12,2.02%
3,O=c1[nH]c(CCl)nc2cc(-c3ccc(Cl)cc3)sc12,7.07%
4,CCCCc1c(O)nc(SCC(=O)N2CCCCC2)[nH]c1=O,15.4%
5,O=C(COC(=O)c1ccc(Cl)nc1)Nc1cc(S(=O)(=O)N2CCCCC2)ccc1Cl,14.4%
6,N#Cc1cccc(NC(=O)CN2CCN(Cc3ccccc3)CC2)c1,-19.1%
7,COc1ccc2oc(-c3ccccc3)c(C(=O)N(C)C)c2c1,17.7%
8,CCCN(CCC)C1CC(=O)N(Cc2ccccc2)C1=O (stereo not drawn),19.9%
9,CNS(=O)(=O)c1cccc2nsnc12,4.59%
10,O=C(CS(=O)c1ccc(F)cc1)N1CCOCC1 (stereo not drawn),6.04%
11,CCC(=O)N1CCc2cc(Br)cc(S(=O)(=O)CCC(=O)NCC3CCCO3)c21 (stereo not drawn),14.4%
12,Cc1ccc2nc(SCC(=O)NCc3ccco3)c(C#N)cc2c1,10.8%
13,Cc1nnsc1C(=O)N1CCCC(N2CCN(c3cccc(C(F)(F)F)c3)CC2)C1 (stereo not drawn),3.26%
14,COc1ccc(CNc2nnnn2C)cc1,18.6%
15,O=C(Nc1ncc(Cc2ccccc2)s1)C1COc2ccccc2O1 (stereo not drawn),8.47%
16,Cc1cc(C)nc(Nc2n[nH]c(COc3ccc(Cl)cc3)n2)n1,-4.88%
17,CCC1(C)C(Nc2c(C)cccc2C)=NC(=S)N1c1ccc(NC(C)=O)cc1 (stereo not drawn),10.5%
18,CCCC(C)NC(=O)CN(Cc1ccco1)S(=O)(=O)c1ccccc1 (stereo not drawn),11.5%
19,CC1(C)Cc2cccc(OCC(=O)NCCc3ccc(S(N)(=O)=O)cc3)c2O1,6.49%
20,CCOc1ccc(CNC(=O)c2cccc(NC(=O)C3=C(C)OCCS3)c2)cc1,11.4%

row,SMILES,"hERG current change (%, negative = inhibition) at 1uM"
1,Cc1cccc(NC(=O)C2CCN(c3nccc(C)n3)CC2)c1,14%
2,Cc1ccc(S(=O)(=O)N2CCN(S(C)(=O)=O)C2C)cc1 (stereo not drawn),7.04%
3,Cc1nc2nc(C)c(NS(=O)(=O)c3ccc(CC(C)C)cc3)c(=O)n2[nH]1,14.6%
4,Cc1ccc(-c2nsc(SCC(=O)NCc3ccc4c(c3)OCO4)n2)cc1,15.2%
5,CC1(C)Cc2c(C#N)c(SCc3ccccc3)nc(N3CCOCC3)c2CO1,-7.77%
6,COC(=O)C1=C(C(=O)OC)C2(OC1c1ccc(Br)cc1)C(=O)c1ccccc1C2=O (stereo not drawn),13.6%
7,CCOC(=O)c1ccc(NC(=O)CC2S/C(=N/N=C/c3c[nH]c4ccccc34)NC2=O)cc1 (stereo not drawn),2.45%
8,CC(C)(C)c1ccc(C(=O)OCCN2CCCCC2)cc1.Cl,-9.85%
9,COc1ccccc1N1CCN(C(=O)Cc2ccc(Cl)cc2)CC1,10.4%
10,O=C(CN(C1CCCCC1)S(=O)(=O)c1ccc(F)cc1)Nc1ccc2c(c1)OCO2,9.66%
11,NS(=O)(=O)c1ccc(CCNC(=O)c2ccc(Cl)nc2)cc1,14.9%
12,CN(C)C(CNc1ccc(S(C)(=O)=O)cc1[N+](=O)[O-])c1ccccc1 (stereo not drawn),6.49%
13,COC(=O)c1c(C)[nH]c(C(=O)CN2CCOCC2)c1C,12.5%
14,COc1ccc(CCNC(=O)COc2ccc(-c3ccc(C#N)cc3)cc2)cc1,14.9%
15,COCCNC(=S)N1CCCC(CO)C1 (stereo not drawn),7.34%
16,CCCCN(C)CCCNC(=O)CN1C(=O)CSc2ccc(S(=O)(=O)N3CCOCC3)cc21,7.69%
17,O=C(CCCc1cccs1)NCCc1c[nH]c2ccccc12,10.6%
18,c1csc(C2Nc3cccc4cccc(c34)N2)c1,4.56%
19,Cc1cc(C(=O)NCc2cccc(Cl)c2)c2ccccc2n1,17.7%
20,C=CCN1C(=O)C(CCCC)NC1=S (stereo not drawn),7.96%

row,SMILES,"hERG current change (%, negative = inhibition) at 1uM"
1,CN(C)/C=C/C(=O)C(F)(F)F,2.94%
2,OCCC1CN(Cc2cccc3c2OCO3)CCN1C1CCCCC1 (stereo not drawn),15.4%
3,CN(C)c1ccnc2sc(C(=O)c3ccccc3)c(N)c12,0.0674%
4,O=C(NNC(=O)C1CC2CCC1C2)c1ccccc1 (stereo not drawn),15.4%
5,CCOC(=O)CSc1cc(C)nc(NC(C)=O)n1,1%
6,COc1ccccc1OCC(=O)OCC(=O)Nc1sccc1C(N)=O,5.11%
7,COc1cc2c(cc1OC)C(Cc1ccc(O)cc1)N(C)CC2 (stereo not drawn),5.25%
8,CN1CCCCc2c1nc1c(c2N)CCCC1,0.539%
9,COc1ccccc1NC(=O)c1c(N=Cc2c(O)ccc3ccccc23)cnn1C,14.4%
10,O=S1(=O)CCOC[C@H](CC2CCCCC2)N1Cc1cccc(F)c1,14.6%
11,O=S(=O)(Nc1cccc(S(=O)(=O)N2CCOCC2)c1)c1ccc(Cl)s1,8.6%
12,O=C1C2C3C=CC(C3)C2C(=O)N1c1ccc2c(c1)OCO2 (stereo not drawn),-3.98%
13,COCCNC(=O)C(c1ccc(Cl)cc1)N(Cc1ccco1)C(=O)CCC(=O)Nc1ccccn1 (stereo not drawn),1.56%
14,O=C(Nc1ccc2c(c1)OCCO2)C1CCN(c2cnccn2)CC1,8.99%
15,COc1cccc(NC(=O)Nc2ccc3nsnc3c2)c1,16.5%
16,CN(Cc1ccccc1)C(=O)Cn1nc(C(F)(F)F)c2c1CCC2,7.05%
17,COc1cc(-c2c(C#N)c(N)nc3c2c(C)nn3-c2ccc(C)c(C)c2)cc(OC)c1OC,21.1%
18,COc1cc(OC)cc(C(=O)/C=C2\Sc3ccccc3N2C)c1,5.65%
19,COc1ccc(/C(N)=N/OC(=O)/C=C/c2ccccc2)cc1,-0.201%
20,COc1ccc(OC)c(C(=O)CC2OC(=O)c3ccccc32)c1 (stereo not drawn),5.4%
